# The whole screen tested about 370,000 compounds, of which about 150 (0.041%) were called active. Inconclusive means that the source gave no clear call. Such entries were picked first, then a sample of the others. Calls come from the whole dose curve; as a rule, active = well fitted inhibition curve with a large enough effect; inconclusive = small, poorly fitted or top-dose-only effect; inactive = flat fitted curve, though single readings scatter. No potency is given beside an inconclusive call; the fits are too rough.
# Biological target: Beta-lactamase (Escherichia coli (strain K12)) (UniProt P00811)
# Test: qHTS Inhibitors of AmpC Beta-Lactamase (assay with detergent); note: nearly all actives have a fitted effect of over 25% in size
# Conditions: AmpC hydrolysis of nitrocefin, absorbance 480 nm, 0.01% Triton; series mostly up to 114 µM
# In short: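 AmpC (5.3 nM in the dispensed reagent) in 20 mM phosphate pH 7.0 with 0.01% (detergent screen) or 0.0001% Triton X-100 was preincubated with compounds for 15 min at room temperature. Nitrocefin was then added from an 800 uM solution, and hydrolysis was followed at 480 nm.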
# Potency is the fitted concentration of half-maximal effect; tags give direction and shape of the fitted curve.
# Sequence of UniProt P00811 (P00811 whole entry, looked up): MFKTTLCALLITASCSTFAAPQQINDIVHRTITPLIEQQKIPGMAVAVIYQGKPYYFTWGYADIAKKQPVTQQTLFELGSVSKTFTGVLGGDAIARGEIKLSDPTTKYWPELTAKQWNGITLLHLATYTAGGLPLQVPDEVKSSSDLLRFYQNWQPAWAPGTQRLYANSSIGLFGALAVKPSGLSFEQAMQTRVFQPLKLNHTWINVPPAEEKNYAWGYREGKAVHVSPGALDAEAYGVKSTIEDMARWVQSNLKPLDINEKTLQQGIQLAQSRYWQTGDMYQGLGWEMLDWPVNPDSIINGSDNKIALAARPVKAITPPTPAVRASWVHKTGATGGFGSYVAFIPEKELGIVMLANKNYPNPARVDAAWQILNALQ
row,SMILES,Potency
1,CCC(=O)Nc1ccccc1C(=O)OCC(=O)c1ccc2ccccc2c1,inactive
2,CCOC(=O)/C(=C/c1ccco1)NC(=O)c1ccc(Br)o1,inactive
3,CC(C)CCN1CCN=C1Nc1ccccc1,"inconclusive [inhibitor, full curve, poor fit]"
4,C=C1CCC[C@]2(C)C[C@H]3OC(=O)C(CN4CCCCC4CO)[C@H]3CC12 (stereo partly drawn),inactive
5,COc1ccc(C)cc1NC(=O)c1cccc(-c2ccc(OC(C)=O)cc2)c1,"inconclusive [inhibitor, partial curve]"
6,COc1ccc(OCc2nc3c4c(ncn3n2)-c2ccccc2CC42CCCC2)cc1,"inconclusive [inhibitor, full curve, poor fit]"
7,Clc1ccc(/C=N/Nc2nn[nH]n2)cc1,"inconclusive [inhibitor, partial curve]"
8,CCCCn1c(O)c(N=Nc2ccccn2)c2ccccc21,"inconclusive [inhibitor, single point]"
9,COc1ccc(S(=O)(=O)Cc2ccc(C(=O)N3CC(C)CC(C)C3)o2)cc1 (stereo not drawn),"inconclusive [inhibitor, full curve, poor fit]"
10,Cc1cc(C)nc(N2CCC(C(=O)Nc3ccc4c(c3)CCC4)CC2)n1,"inconclusive [inhibitor, full curve, poor fit]"
11,CC(=O)CCn1cnc([N+](=O)[O-])n1,"inconclusive [inhibitor, single point]"
12,Cc1cc(C)c[n+](CC(=O)c2ccc(C)c([N+](=O)[O-])c2)c1,"inconclusive [inhibitor, full curve, poor fit]"
13,CCC(=O)NC(=S)Nc1cccc(NC(=O)c2ccco2)c1,inactive
14,CCC(OC(=O)c1cccs1)C(=O)NC1CCCCC1 (stereo not drawn),"inconclusive [inhibitor, full curve]"
15,O=C1NCCCC1C(=O)N1CCN(C(=O)C2CCCNC2=O)CC1 (stereo not drawn),"inconclusive [inhibitor, partial curve, poor fit]"
16,COc1ccc(N2CC(C)Cn3c2nc2c3c(=O)n(Cc3ccc(C)cc3)c(=O)n2C)c(OC)c1 (stereo not drawn),inactive
17,O=C1CC(Sc2ccc(Cl)cc2)C(=O)N1c1ccc2c(c1)OCCO2 (stereo not drawn),inactive
18,CCC1C(=O)NCCN1Cc1nc(-c2ccc(C)s2)oc1C (stereo not drawn),inactive
19,O=C(NCc1ccccc1Cl)c1ccc(CS(=O)Cc2ccc(Cl)cc2)o1 (stereo not drawn),inactive
20,CCCC1S/C(=N/N=C/c2ccc(OC)cc2)N(Cc2ccc(OC)cc2)C1=O (stereo not drawn),"inconclusive [inhibitor, full curve]"
21,CCN(CC)C(=O)c1cccc(NC(=O)c2cc(C3CC3)nc3c2cnn3C(C)C)c1,"inconclusive [inhibitor, full curve, poor fit]"
22,CNNC(=S)Nc1ccc(Cl)cc1,inactive
23,CCC12CN(C(=O)c3ccc(OC)cc3)CC(CC)(CN(C(=O)c3ccc(OC)cc3)C1)C2=O,inactive
24,COc1cccc(N2CCN(c3nc(C)cc(=O)[nH]3)CC2)c1,"inconclusive [inhibitor, full curve]"

row,SMILES,Potency
1,N#Cc1ccc2ccn(CC(=O)NCc3ccco3)c2c1,"inconclusive [inhibitor, full curve, poor fit]"
2,COc1ccc(-c2csc(CCn3nc(C)cc3C)n2)cc1,inactive
3,Cc1ccc(NS(=O)(=O)c2ccc3c(c2)CCC(=O)N3)cc1,"inconclusive [inhibitor, full curve, poor fit]"
4,COc1ccc(CC(=O)OCC(=O)NC2CC2)cc1,"inconclusive [inhibitor, partial curve]"
5,O=[N+]([O-])c1cn(Cc2ccccc2)cn1,"inconclusive [inhibitor, full curve, poor fit]"
6,CCOc1ccc(-c2nn[nH]n2)cc1,inactive
7,CCOc1ccccc1NC(=O)Cn1c(=O)n(-c2ccc(F)cc2)c(=O)c2c3c(sc21)CN(C(C)=O)CC3,inactive
8,COc1ccc2[nH]c(C)c(CCNC(=S)Nc3ccccc3C)c2c1,inactive
9,CCOC(=O)c1sc(N)c(C(N)=O)c1C,"inconclusive [inhibitor, partial curve, poor fit]"
10,Cc1cc(C)n(CC(=O)N/N=C/c2c[nH]c3ccccc23)n1,inactive
11,CCOC(=O)N1CCN(C(=O)c2ccc3oc(CCCc4ccccc4)nc3c2)CC1,inactive
12,N#CCCn1c(SCC(=O)NCc2ccco2)nc2ccccc21,inactive
13,Cc1ccc(NC(=S)NCC(C)C)cc1,inactive
14,Clc1ccc(CSc2cc3c(nn2)-c2ccccc2CC3)cc1,inactive
15,FC(F)C(F)(F)C1=CC(c2cccs2)=NCCN1,"inconclusive [inhibitor, single point]"
16,CC1CCC(Nc2nnnn2-c2ccccc2)CC1 (stereo not drawn),"inconclusive [inhibitor, partial curve, poor fit]"
17,COc1ccccc1/C=C/C(=O)OCC(=O)N1CCc2ccccc21,"inconclusive [inhibitor, full curve]"
18,COc1cc(CN2CCCN(C)CC2)c([N+](=O)[O-])cc1OC,"inconclusive [inhibitor, partial curve, poor fit]"
19,NS(=O)(=O)c1ccc(CCNC(=O)CN2C(=O)c3ccccc3S2(=O)=O)cc1,"inconclusive [inhibitor, partial curve, poor fit]"
20,Nc1nc(Nc2ccccc2F)nc(NCc2ccco2)c1[N+](=O)[O-],inactive
21,Cc1ccc(N/C(N)=N/c2nc(C)cc(N3CCCCC3)n2)c(C)c1,inactive
22,S=c1[nH]nc(C2CC2)n1Cc1ccccc1,"inconclusive [inhibitor, full curve, poor fit]"
23,CCOC(=O)C1=C(C)OC(N)=C(C(=O)OC)C12C(=O)Nc1ccc(Br)cc12 (stereo not drawn),"inconclusive [inhibitor, single point]"
24,CCN(CC)C(=O)C1CCC(C)(C(=O)O)C1(C)C (stereo not drawn),"inconclusive [inhibitor, partial curve]"

# Reference: PubChem BioAssay AID485294 (National Center for Advancing Translational Sciences (NCATS), 2010)
